Measured values reported in PubChem BioAssay AID2675 (National Center for Advancing Translational Sciences (NCATS), 2010).
Hit rate of the full screen: of about 280,000 compounds, about 100 (0.036%) were called active. Inconclusive results, whose numbers are uncertain, are shown with a selection of clear calls. The call rests on the fitted dose curve; in most records, active means well fitted inhibition curve with a large enough effect in the signal ratio, with a control signal flat (not every such curve was filed as active); inconclusive means small, poorly fitted or top-dose-only effect, or effect the other way, or a change in a side signal; inactive means no such curve, though single readings can be large or run the other way; the % refers to the signal ratio. Where the call is inconclusive, the potency comes from a doubtful curve fit. A note “side channel” means that the fit belongs to a control or component signal, not to the main read-out.

These compounds were tested against Muscleblind-like protein 1 (Homo sapiens) (UniProt Q9NR56) (assay: qHTS Assay for Inhibitors of MBNL1-poly(CUG) RNA binding). Settings: TR-FRET MBNL1-His/biotin-(CUG)12 binding, 665/545 ratio; activity change, negative = inhibition: at 57.5 µM (top of the series).
Chain of UniProt Q9NR56 (Q9NR56 whole entry, looked up): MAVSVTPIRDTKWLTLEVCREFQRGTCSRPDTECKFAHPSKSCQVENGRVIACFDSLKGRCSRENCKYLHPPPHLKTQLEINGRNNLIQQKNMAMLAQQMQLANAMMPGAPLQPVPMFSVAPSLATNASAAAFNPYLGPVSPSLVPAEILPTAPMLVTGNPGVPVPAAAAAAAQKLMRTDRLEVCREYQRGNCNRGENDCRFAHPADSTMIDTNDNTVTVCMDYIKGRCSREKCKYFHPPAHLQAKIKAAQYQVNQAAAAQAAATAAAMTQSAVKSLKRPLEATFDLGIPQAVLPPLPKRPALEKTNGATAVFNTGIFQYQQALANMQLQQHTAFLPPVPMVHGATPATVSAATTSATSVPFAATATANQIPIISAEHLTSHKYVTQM
In short: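 Inhibition of protein-RNA binding appears as loss of TR-FRET between terbium anti-His antibody on MBNL1-His and streptavidin-XL665 on biotin-(CUG)12. Activity is normalized to buffer-only and uninhibited-complex controls.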
On the % scale 0 is the no-effect control and ±100 the full control effect; potency means the concentration at half of the fitted maximal effect; tags describe the fitted curve by direction and shape or compound fluorescence and quenching.

Row | SMILES | activity change, negative = inhibition | Potency
1 | CC(C)(C)c1ccccc1OCC(=O)Nc1ccccc1C(=O)NCc1cccnc1 | inactive: -3.85% | –
2 | COc1ccccc1N1CCN(c2ccnc3cc(Cl)ccc23)CC1 | inactive: 0.789% | –
3 | NNC(=O)c1oc2nc(-c3cccs3)cc(-c3ccco3)c2c1N | – | inconclusive: 12.6 µM [quencher, side channel, partial curve]
4 | NC(=S)n1[nH]c(-c2ccccc2)c(N=Nc2ccccc2C(=O)N2CCOCC2)c1=O | – | inconclusive: 5.01 µM [quencher, side channel, full curve]
5 | CCCc1[nH]n(-c2ccc(F)cc2)c(=O)c1C=Nc1cccc(F)c1 | – | inconclusive: 39.8 µM [fluorescent, side channel, single point]
6 | CN(C)S(=O)(=O)c1ccc(Nc2nc(C3CC3)nc3c2nnn3Cc2ccccc2Cl)cc1 | inactive: -18.3% | –
7 | O=C(Nc1ccc(Cc2ccncc2)cc1)c1cc([N+](=O)[O-])ccc1N1CCOCC1 | – | inconclusive: 14.1 µM [quencher, side channel, partial curve]
8 | NC1=NC(=Nc2ccc(S(=O)(=O)N3CCOCC3)cc2)c2ccccc21 | – | inconclusive: 15.8 µM [quencher, side channel, partial curve]
9 | COc1ccccc1N1CCN(Cc2cc3c(cc2[N+](=O)[O-])OCO3)CC1 | – | inconclusive: 15.8 µM [quencher, side channel, partial curve]
10 | CC(/C=N/NC(=O)Cc1cc(=O)[nH][nH]1)=C\c1ccccc1 | – | inconclusive: 20 µM [quencher, side channel, single point]
11 | CC(NC(=O)c1ccc2c(c1)C(=O)N(Cc1cccnc1)C2=O)c1ccccc1 (stereo unspecified) | – | inconclusive: 14.1 µM [quencher, side channel, partial curve]
12 | O=C(O)CCCc1nc(-c2ccccc2)no1 | inactive: -1.82% | –
13 | C=CCn1c(=O)c2ccccc2n2c(SCC(=O)c3ccccc3)nnc12 | inactive: -1.91% | –
14 | Nc1c(Cl)ncnc1N/N=C/c1cccnc1 | – | inconclusive: 28.2 µM [quencher, side channel, partial curve]
15 | COc1ccc(C(=O)C[n+]2ccc(-c3nnc4n3CCCCC4)cc2)cc1 | – | inconclusive: 14.1 µM [quencher, side channel, partial curve]
16 | O=C(N/C(=C/c1ccccc1)C(=O)N1CCOCC1)c1ccc([N+](=O)[O-])cc1 | – | inconclusive: 15.8 µM [quencher, side channel, partial curve]
17 | CC(C)(C)NC(=O)NC(=O)COC(=O)CNC(=O)c1cc(Cl)cc([N+](=O)[O-])c1 | – | inconclusive: 15.8 µM [quencher, side channel, partial curve]
18 | CCC1(CC)Cc2ccccc2C(N)=C1C#N | – | inconclusive: 2.82 µM [quencher, side channel, partial curve]
19 | Cn1ccc(NC(=O)Nc2cccc([N+](=O)[O-])c2)n1 | – | inconclusive: 14.1 µM [quencher, side channel, partial curve]
20 | COC(=O)/C=C/c1ccc(-n2ccnc2)cc1 | – | inconclusive: 12.6 µM [quencher, side channel, partial curve]
21 | CN(C)c1ccc2nc3ccc(=[N+](C)C)cc-3sc2c1 | – | inconclusive: 2.82 µM [quencher, side channel, full curve]

Row | SMILES | activity change, negative = inhibition | Potency
22 | Cc1nc(SC2CCOC2=O)c2c(C)c(C)sc2n1 (stereo unspecified) | inactive: 4.67% | –
23 | COc1ccc(-c2cnnc(N/N=C/c3ccc(-c4ccc([N+](=O)[O-])cc4)o3)n2)cc1 | – | inconclusive: 39.8 µM [quencher, single point]
24 | Cc1ccc(S(=O)(=O)CCc2nnc(NC(=O)c3ccccn3)s2)cc1 | inactive: 11.3% | –
25 | CCCn1nc(NC(=O)C(C)(C)C)c2cc3cc(OC)ccc3nc21 | inactive: 12.9% | –
26 | Nc1ccc(S(N)(=O)=O)cc1N | – | inconclusive: 15.8 µM [quencher, side channel, partial curve]
27 | Cc1[nH]c2c(C)cccc2c1CCNS(=O)(=O)c1cccc([N+](=O)[O-])c1 | – | inconclusive: 10 µM [quencher, side channel, partial curve]
28 | CC(=O)c1c(COC(=O)c2ccccc2Cl)nc2ccccc2[n+]1[O-] | – | inconclusive: 3.55 µM [quencher, side channel, full curve]
29 | COc1ccc2nc(NC(=O)c3ccccc3O)sc2c1 | inactive: 15.3% | –
30 | Cc1ccc(CCNC(=O)C2CC(c3ccccc3[N+](=O)[O-])=NO2)cc1 (stereo unspecified) | – | inconclusive: 20 µM [quencher, side channel, partial curve]
31 | COc1ccc(NC(=O)c2cc(-c3ccccc3Cl)no2)cc1 | inactive: -10.2% | –
32 | Cc1cccc(NC(=O)/C=C/c2cccs2)n1 | – | inconclusive: 25.1 µM [quencher, side channel, partial curve]
33 | O=S(=O)(NCc1ccccc1)c1ccc(F)cc1Br | inactive: -10.8% | –
34 | CCOC(=O)CSc1nnc(-c2ccccc2)c(-c2ccccc2)n1 | – | inconclusive: 25.1 µM [quencher, side channel, partial curve]
35 | O=C(COc1cccnc1[N+](=O)[O-])NCc1ccc(F)cc1 | – | inconclusive: 17.8 µM [quencher, side channel, partial curve]
36 | Cc1ccnc(NC(=O)c2ccc(Cl)c([N+](=O)[O-])c2)c1 | – | inconclusive: 25.1 µM [quencher, side channel, partial curve]
37 | Cc1cc(NC(=O)c2ccc3c(c2)C(=O)N(C)C3=O)no1 | – | inconclusive: 2.82 µM [quencher, side channel, full curve]
38 | Cn1cc([N+](=O)[O-])c(C(=O)Nc2ccc(C(=O)N3CCCCC3)cc2)n1 | – | inconclusive: 11.2 µM [quencher, side channel, partial curve]
39 | CC(=O)C1=C(C)NC(SCC(=O)c2ccc(Cl)c(Cl)c2)=C(C#N)C1c1ccco1 (stereo unspecified) | – | inconclusive: 39.8 µM [quencher, single point]
40 | CCOCCCNC(=O)C1CCC(CNS(=O)(=O)c2cccc3nsnc23)CC1 (stereo unspecified) | – | inconclusive: 11.2 µM [quencher, side channel, partial curve]
41 | CNc1nc(SC)n(C)c(=O)c1N=O | – | inconclusive: 12.6 µM [quencher, side channel, partial curve]
42 | Cc1cc[n+](-c2[nH]c(=O)sc2/C=N/NC([S-])=Nc2ccccc2)cc1 | – | inconclusive: 3.16 µM [quencher, side channel, single point]

Row | SMILES | activity change, negative = inhibition | Potency
43 | CCOC(=O)C1CCN(C(=O)CNC(=O)c2nn(-c3ccc(OC)cc3)c(=O)c3ccccc23)CC1 | – | inconclusive: 7.94 µM [quencher, side channel, partial curve]
44 | CN(Cc1cnn(C)c1)S(=O)(=O)c1cccc([N+](=O)[O-])c1 | – | inconclusive: 22.4 µM [quencher, side channel, partial curve]
45 | CC(=O)CSc1ncnc2c1oc1ccccc12 | – | inconclusive: 31.6 µM [fluorescent, side channel, single point]
46 | O=C(OCc1nc2ccccc2[n+]([O-])c1C(=O)c1ccccc1)c1ccco1 | – | inconclusive: 14.1 µM [quencher, side channel, partial curve]
47 | COc1ccc(/C=N/N(C)C2=NS(=O)(=O)c3ccccc32)cc1 | inactive: 0.4% | –
48 | CCn1nc(C)c(CN2CCC(C(=O)Nc3cccc(-c4cccc(Cl)c4)c3)CC2)c1C | inactive: -6.09% | –
49 | COc1ccccc1C(=O)Nc1ccnn1C1CCN(C(=O)c2ccoc2C)CC1 | inactive: -6.48% | –
50 | N#C/C(=C\c1ccc(F)c(Br)c1)C(=O)NC1CC1 | – | inconclusive: 2.51 µM [quencher, side channel, full curve]
51 | N#CC1=C2SCC(O)(c3ccccc3)N2C(=O)CC1c1ccccc1 (stereo unspecified) | – | inconclusive: 20 µM [quencher, side channel, partial curve]
52 | Cc1cc2ccccn2c1C(=O)c1ccc(S(=O)(=O)N(C)C)cc1 | – | inconclusive: 15.8 µM [quencher, side channel, partial curve]
53 | COc1ccc(C2=NS(=O)(=O)N(C)C(C(=O)NCc3ccccc3)=C2)cc1OC | – | inconclusive: 15.8 µM [quencher, partial curve]
54 | CCCc1nnc(NC(=O)Cn2c(=O)oc3ccccc32)s1 | – | inconclusive: 20 µM [inhibitor, single point]
55 | O=C(NCc1ccco1)C12CN(Cc3ccccc3)CC1C(c1ccc([N+](=O)[O-])cc1)=NO2 (stereo unspecified) | – | inconclusive: 25.1 µM [quencher, side channel, partial curve]
56 | COc1cc(/C=C/C(=O)OCC(=O)N2CC3(C)CC2CC(C)(C)C3)ccc1O (stereo unspecified) | – | inconclusive: 31.6 µM [quencher, side channel, partial curve]
57 | Cc1c(Br)c([N+](=O)[O-])nn1CC(=O)Nc1ccc(CC#N)cc1 | – | inconclusive: 35.5 µM [quencher, side channel, single point]
58 | O=C(NCc1cccs1)C(NS(=O)(=O)c1cccc2nsnc12)c1ccccc1 (stereo unspecified) | – | inconclusive: 15.8 µM [quencher, side channel, partial curve]
59 | CCCCNC(=S)Nc1cccc2cnccc12 | – | inconclusive: 3.98 µM [quencher, side channel, partial curve]
60 | c1ccc(-c2csc(N3CCCCCC3)n2)cc1 | – | inconclusive: 3.55 µM [quencher, side channel, single point]
61 | COc1ccccc1OCCNc1cc(N2CCOCC2)ccc1[N+](=O)[O-] | – | inconclusive: 11.2 µM [quencher, side channel, partial curve]
